In the antibiotic and cytotoxicity screens of Wong et al. (2023):
This is one part of the list.

Test system: S. aureus RN4220
Assay: growth inhibition call (relative growth <= 0.2)
Details: 50 µM

Growth inhibition call, inactive:
COc1ccc(NC(=O)Nc2ccc3c(c2)CC(=O)N([C@H](C)CO)C[C@H](C)[C@H](CN(C)Cc2ccc(Cl)c(Cl)c2)O3)cc1, CCS(=O)(=O)N1C[C@]2(CCN(CC2)S(=O)(=O)c2ccccc2)c2c(n(c3cc(ccc23)OC)C)[C@@H]1CO, C[C@H]1CN([C@@H](C)CO)C(=O)c2cccc(NS(=O)(=O)c3ccc(F)cc3)c2O[C@H]1CN(C)C(=O)Nc1cccc2ccccc12, O=C(C1=C[C@H](c2coc3ccccc3c2=O)C[C@H](OCCCCO)O1)N1CCN(Cc2ccc3c(c2)OCO3)CC1, C[C@@H]1CN([C@H](C)CO)C(=O)c2c(c3ccccc3n2C)-c2ccccc2CO[C@H]1CN(C)Cc1ccc(F)cc1, CS(=O)(=O)N1CCOC[C@]2(CN(C(=O)c3ccc[nH]3)CCO2)C1, Cc1cc(C(=O)Nc2cccc3c2O[C@H](CN(C)C(=O)Nc2ccccc2)[C@@H](C)CN([C@H](C)CO)C3=O)n(C)n1, O=C(O)Cn1cc(Br)c(=O)[nH]c1=O, C[C@@H]1CCCCO[C@@H](CN(C)S(=O)(=O)c2cn(C)cn2)[C@H](C)CN([C@@H](C)CO)C(=O)c2cc(NS(=O)(=O)c3cn(C)cn3)ccc2O1, COc1ccc(S(=O)(=O)Nc2ccc3c(c2)C(=O)N([C@H](C)CO)C[C@H](C)[C@H](CN(C)CC2CC2)O3)cc1, C[C@H]1CCCCO[C@H](CN(C)C(=O)Nc2ccc(C(F)(F)F)cc2)[C@@H](C)CN([C@@H](C)CO)C(=O)c2cc(NC(=O)c3ccncc3)ccc2O1, C[C@H](CO)N1C[C@H](C)[C@@H](CN(C)S(=O)(=O)c2ccccc2)Oc2ccc(NC(=O)Cn3cnnn3)cc2C1=O, COCC(=O)N(C)C[C@H]1Oc2cc(C#Cc3ccccc3)ccc2S(=O)(=O)N([C@@H](C)CO)C[C@@H]1C, Cc1noc(C)c1NC(=O)Nc1ccc2c(c1)C(=O)N([C@H](C)CO)C[C@H](C)[C@H](CN(C)C(=O)Nc1c(C)noc1C)OCCCC[C@H](C)O2, C[C@@H]1CCCCO[C@@H](CN(C)C(=O)Nc2ccc(C(F)(F)F)cc2)[C@H](C)CN([C@@H](C)CO)C(=O)c2cc(NC(=O)Nc3cccc4ccccc34)ccc2O1, COc1ccc(S(=O)(=O)N(C)C[C@H]2Oc3c(NC(=O)C4CCOCC4)cccc3C(=O)N([C@@H](C)CO)C[C@H]2C)cc1, CNC[C@@H]1Oc2cc(C#CCN(C)C)ccc2S(=O)(=O)N([C@@H](C)CO)C[C@H]1C, C[C@H]1CN([C@@H](C)CO)C(=O)c2cc(C#CCc3ccccc3)cnc2O[C@H]1CN(C)CC1CCOCC1, C[C@H]1CCCCO[C@H](CN(C)Cc2ccccc2)[C@@H](C)CN([C@@H](C)CO)C(=O)c2cc(NC(=O)Cc3ccccc3)ccc2O1, CO[C@@H]1CN(C)C(=O)c2ccc(NC(=O)Nc3cccc(Cl)c3)cc2OC[C@H](C)N(C(=O)Nc2c(C)noc2C)C[C@H]1C, O=C(C[C@H]1C[C@@H]2c3cc(NS(=O)(=O)c4ccc(F)cc4)ccc3O[C@@H]2[C@@H](CO)O1)N1CCCCC1, C[C@@H]1CCCCO[C@@H](CN(C)CC2CC2)[C@H](C)CN([C@@H](C)CO)C(=O)c2cc(NC(=O)NC3CCCCC3)ccc2O1, Cn1cc(-c2nc(N[C@@H]3CCCC[C@@H]3N)c(F)c3c2C(=O)NC3)cn1, NC(=O)c1nnn(Cc2ccccc2)c1N, CO[C@@H](CN(C)S(=O)(=O)c1cccc(Cl)c1)[C@H](C)CN([C@H](C)CO)S(=O)(=O)c1cccc(Cl)c1, COc1ccc(CN(c2ncns2)S(=O)(=O)c2ccc(Oc3c(F)cc(F)cc3-c3ccnn3C)c(C#N)c2)c(OC)c1, Cc1noc(C)c1S(=O)(=O)Nc1ccc2c(c1)C(=O)N([C@@H](C)CO)C[C@H](C)[C@@H](CN(C)CC1CCCCC1)OCCCC[C@H](C)O2, COc1ccc(S(=O)(=O)N(C)C[C@H]2Oc3ccc(NC(=O)Nc4c(C)noc4C)cc3C(=O)N([C@@H](C)CO)C[C@@H]2C)cc1, COc1ccc(C#Cc2ccc3c(c2)O[C@H](CN(C)C(=O)CN2CCOCC2)[C@@H](C)CN([C@H](C)CO)S3(=O)=O)cc1
